The source gives no read counts; variants with many changes may rest on few reads.

Self-cleavage data for 56 variants are collected here from the RNAGym collection of RNA variant scans (doi:10.7554/elife.90254).

Sequences and labels used below:
B1: LINE1-mini (parent)
chain: GGCAGAGCUCAACACAGCGUGGCAAAGUGGCUGUGGCUAGACUGCC

This series covers variants of B1. Nature of the series: self-cleavage, relative activity (ratio to wild type); higher = more cleavage; in vitro, sequencing; the parent is a self-cleaving ribozyme.
On to GACAGAGCUCAACACAGCGUGGCAAAGGGGCUGUUGCUAGACUGCC, for which the self-cleavage stood at 0.26. GCAAGAGCUCAACACAGCGUGGAACAGUGGCUGUGGCUUGACUGCC: the self-cleavage came out at 0.28.

As for GACAGAGCUCAACACAGCGUGGCAAAGUGGCUGUGGCAAGACUGAC, the self-cleavage was determined as 0.72. On to GCCAGAGCUCAACCCAGCGUGGCAAAGUGGCUGUGGCUAGACUCCC, for which the self-cleavage was found to be 0.23. Regarding GCCAGAGCUCAACCUAUCGUUGCAAAGUGGCAGUGGCUAGAAUGCC, the self-cleavage turned out to be 0.03.

Consider GCCAGAGCUCACCUCAGCGUGGCAAAGUGGCGAGGGCUAGACUGCC, for which the self-cleavage amounted to 0.01. Take GCCAGUGCUCAUCACAGCGUGGCAAAGUGGCUGUGGCUAUACUGCC: the self-cleavage stood at 0.03. For GCAAGAGCUCAACACAGCGUGGCAAAGUGGCUUUGGCUAGACUGCC, the self-cleavage came to 0.09. Under GACAGAGCUCAACACAGCGGGUCAAAGUUGUUGUGGCUAGACUGCC stands 0.15; under GCCAGUGCUAAACACGGCGUGGCAAAGUGGCUGUGGCUAAACUUCC, 0.02; under GCCAGAGCUCACCACAGCGUGGCAAAGUGGCUGUGGUAAGACUGCC, 0.01.

For the variant GACAGAGCUCAACACAGCGUGGCAAAGUGGCUGUGGCUAUACGGCC, the self-cleavage is 0.01. GCCAGAGCUCUACACAGCGGGGCAAAGUGGCGGGGGCUAGAGUGCC: the self-cleavage is 0.01. Under GACAGAGCUCAACACAGCGUGGCAAAGUGGCGGUUGCUAGACUGCC stands 0.16; under GCCAGAGCUCAACACAGCGUGGCAACGUGACUGUGGCUAGACUGCC, 0.28. For GCCGGAGCUCACCACAGCGUGUCAAAGUGGCUGUGGCUAUACUGCC, the self-cleavage is 0.05. Under GCCAGAGCUCAACCCAGCAUGGCAAAGUGGCUGUGGCUAGACUGCC stands 0; under GCCUGAGCUCAACACAGCGUGUCAAAGUGGCUGUGGCUAGACUUCC, 0.03. In the case of GCAAGAGCUCAACAAAGCGUGGCAAAGCGGCUCUGGCUAGACUGCC, the self-cleavage turned out to be 0.02.

On to GCCAGGGCUCAACACAGCGUGGCCGUGUGGCUGUGGCUAGACUUGC, for which the self-cleavage was determined as 0.01.

For GCCAGUCCUCAACACAGCGUGGUAAUGUGGGUGUGGCUAGCCUGCG, the self-cleavage came out at 0.03. In the case of GCCAGAGCUCAGCACAGCGUUGCAAAGUGGCUGUGGCUAGACUGCC, the self-cleavage was found to be 0.04. As to GCCGGAGCUCAACACAUCGUCGCAAAGAGGCUGUGGCUAGACUGAC, the self-cleavage came out at 0.13. Consider GCCAGAGCUCAACACCGCGUGGCAACGUGGUUGUGGCUAGACUGCC, for which the self-cleavage came to 0.03.

For GACAGAGCCGGACACAGCGUGGCAAAGUGGCUGUGGCUAGACUGCC, the self-cleavage is 0.04. For GCGAGAGCUCAACACAGCGUGGGAAAGUGGCUGUGGCUAGACUGCC, the self-cleavage amounted to 0.09.

Consider GACAGAGCUCAACACAGCGUGGCAAAGUGGCUGUGCCUAGACUGAC, for which the self-cleavage is 0.07. Under GACAGAGCUCAACACAGCGUGGCAAAGUGGCUGCGGCUAGACUGGC stands 0.09; under GCAAGAGCUCAACACAGCGUGGAAAAGUGGCUGUGGCUAGACUGCC, 0.42. GCCAGAGCUCAUCACAGCGUGGCAACGUGGCCGUGGCUAGACUGCC: the self-cleavage came out at 0.02. Under GCCAGAGCUCAACACAGCGUGGCACAGUGGCCGUGGCUUGACUGCA stands 0.01; under GCCAGUGCUCAACACAGCGUGGCACAGGGGCUGUGGCUAAACUGCC, 0.25; under GCCAGGGCUCAACACAGCGUGGCAAACUGGCUGUGCCUAGAGUGCC, 0.

For the variant GACAGAGCUCAACACAGCGUGGCAAAGUGGCUGUGUCUAGGCUGCC, the self-cleavage was 0.08. Under GCCCGAGCUCAACACGGCGUCGCAAAAUGGCUGUGUGUAGACUGCC stands 0.01; under GCCAGGGAUCAACACAGCGUGGCAAAGUGGCUGUGGCUAGCCUGCC, 1.88.

Consider GCCCGAGCUCAACACAGCUUGGCAAAGUGGCUGUGGCUAGACUGCC, for which the self-cleavage stood at 0.02.

For GCCAGGGCUCCACACAGCGUGGCAAAGUGGCUGUGGCUAGACUGCC, the self-cleavage amounted to 0.01. In the case of GCCAGAGCUCAACACAGCGUGGCAAGAUGGCUGUGGCUAGACUACC, the self-cleavage came to 0.09. As for GCCAGUGCUCAACACAGCGUGGCAAUGUGGCUGUGGCUUGACUGCC, the self-cleavage came to 0.02.

For the variant GCCAGAGCUCAACUCAGCGUGGCAAAAUGGCUGUGGCUAGACUGCC, the self-cleavage turned out to be 0.07.

As for GCCAGAGCUCAGCACAGCGUGGCAAAGUGGCUGUGGCUAAACUGCC, the self-cleavage worked out at 0.08.

On to GACAGAGCUCAACACAGCGUGGCAAAGUGGCUGUGGCGAGAUUGCC, for which the self-cleavage worked out at 0.11. Under GCAAGAGCUCAACCCUGCGUGGCAAAGUGGCUGUGGCUAGACUGCC stands 0.06. Under GACAGAGCACUCUACAGCGUGGCAAAGUGGCUGUGGCUAGACUGCC stands 0.03; under GCCUGAGCUAAACACAGUGUGGCAAAGUGGCUGUGGCUAGACUGCC, 0.04; under GCCCGAGCUCAACACAGCGUGGCCAAGUGGCUGUGGCUAGACUGCC, 0.02. On to GCAAGAGCUGAACACAGCGUGGCAAAGUGGCUGUGGCUACACUGCC, for which the self-cleavage was 0.02.

Take GCCAGCGCUCAACACAGCGUGGAAAAGUGGCUGUGGCUAGACUGCC: the self-cleavage was 0.08. Take GCCAGCGCUCAACAUAGCGUGGUAAAGUGGCUGUGGCUAGACUGCC: the self-cleavage is 0.2.

GCCCGAGCUCAAAACAGCGUGGCAAUGUGGCUGUGGCUAGACUCCG: the self-cleavage was determined as 0.03.

With GCCAGAGCUCAACGCAGCGUGGCUAAGUGGCUAUGGCUAGACUGCC, the self-cleavage was 0.01. Under GCCAGAGCUCUACACAGCGUGGCAAAGUGGCUGUGGCUAGAAUGCC stands 0.01. In the case of GCCUGAGCUCUACACAGCCUGGCAAAGUGGCUGGGGCUAGACUGGC, the self-cleavage turned out to be 0.01.

Turning to GCCAGUGCUCAACACAGCGUGGCAGAGUGGAUGUGGCUAGACUGCC, the self-cleavage turned out to be 0.06. GACAGAGCGCAACACAGUGUGGCAAAGUGGCUGUGGCUAGACUGCA: the self-cleavage worked out at 0.06.
